In the series the test system is ATP. The series is described as follows: switch fluorescence ratio, 500 uM ATP over buffer (Cy3 cluster intensity, sum of 5 cycles each) (fold (ratio)); higher = stronger signal-on switching upon ATP binding; sequences stand for … in TCGTCGGCAGCGTCAGATGTGTATAAGAGACAGTTTTTTTTTTTTTTTTTTTTTTTTT…TC. As to conditions: aptamer strand: ATP DNA aptamer (quencher-CACCTGGGGGAGTATTGCGGAGGAAGG + anchor), 100 nM annealed; ATP concentration: 500 uM; one replicate. A digest of the protocol:
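Imaging in selection buffer was followed by imaging after 15 min with 500 uM ATP at 22 °C, for Cy3-labelled switching-strand clusters annealed to 100 nM quencher-labelled ATP aptamer on a modified Illumina MiSeq flow-cell. Five of these buffer/ATP cycles ran, separated by NaOH stripping and re-annealing. The fluorescence ratio per cluster is summed target-cycle over summed buffer-cycle Cy3 intensity, averaged per switch-domain sequence; clusters outside 100-1000 RFU were removed.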

Sequences with one replicate were seen in a single cluster, so their values are uncertain.
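Further: ATP exposure 15 min at 22 °C before imaging.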

For the sequence CACGAGCCAC, the switch fluorescence ratio was determined as 1.17.

Regarding CACGTTAAGA, the switch fluorescence ratio amounted to 1.17.

As for ACTTTACGTG, the switch fluorescence ratio was 1.28.

For TTCAAGAAAG, the switch fluorescence ratio came out at 1.

With GGGAGAGCAA, the switch fluorescence ratio is 1.7.

On to AAATGGTCC, for which the switch fluorescence ratio is 1.01.

On to GATCTCATGG, for which the switch fluorescence ratio was found to be 0.943.

As to CGGTCTTAGA, the switch fluorescence ratio amounted to 0.969.

In the case of ACAGTGGCTT, the switch fluorescence ratio was found to be 1.01.

CATAATGATG: the switch fluorescence ratio was 0.986.

As to TTCAAGTGAG, the switch fluorescence ratio worked out at 1.01.

With GATGTGCCCG, the switch fluorescence ratio was determined as 0.988.

Take GTGCGTGGGT: the switch fluorescence ratio was determined as 1.02.

As for TGGCTTTCTT, the switch fluorescence ratio stood at 1.05.

Turning to AAGAAAATGC, the switch fluorescence ratio turned out to be 2.34.

Take AACTAGAAGA: the switch fluorescence ratio was determined as 0.962.

With GAGGCCTACG, the switch fluorescence ratio worked out at 1.06.

Take CCAAGGACTG: the switch fluorescence ratio was determined as 1.09.

In the case of GTCAGGGGAA, the switch fluorescence ratio was found to be 0.999.

In the case of TTTCTTGTAG, the switch fluorescence ratio worked out at 0.962.

As to TAAGACATTA, the switch fluorescence ratio came out at 0.991.

On to GAACACGATA, for which the switch fluorescence ratio stood at 1.32.

On to CATTTGTGTG, for which the switch fluorescence ratio is 0.983.

Consider CGAATTATGT, for which the switch fluorescence ratio worked out at 1.02.

With CTATTCAGAC, the switch fluorescence ratio came out at 1.01.

For TCATCCAGTC, the switch fluorescence ratio stood at 1.

With TGGAGTTCCT, the switch fluorescence ratio was 0.971.

Consider AGGCCCGTAA, for which the switch fluorescence ratio came out at 1.09.

For the sequence TTTTGCAATA, the switch fluorescence ratio came out at 1.04.

On to GTTAACCATC, for which the switch fluorescence ratio amounted to 0.956.

Regarding AGGTTAGCTA, the switch fluorescence ratio was 0.961.

For the sequence TACTAGAGG, the switch fluorescence ratio turned out to be 1.08.

With GCCTGCGACG, the switch fluorescence ratio is 1.07.

With GATTCGTACT, the switch fluorescence ratio amounted to 0.969.

As to TATTAGCGCA, the switch fluorescence ratio was 1.02.

Turning to AAAGGGCCG, the switch fluorescence ratio is 1.06.

For the sequence GCTCAGGAAG, the switch fluorescence ratio amounted to 1.07.

For the sequence CGTCGTTCTG, the switch fluorescence ratio was 1.14.

Turning to AATCTTTAGG, the switch fluorescence ratio came out at 0.986.

Turning to GTATCCCTGT, the switch fluorescence ratio came to 0.977.

With AGTTTGCGTG, the switch fluorescence ratio came to 1.01.

As to TTTGTGCTG, the switch fluorescence ratio worked out at 1.02.

Regarding GGTCCCCATA, the switch fluorescence ratio stood at 1.01.

With ACGAATGACA, the switch fluorescence ratio stood at 1.03.

For ACGCTGGACT, the switch fluorescence ratio is 1.34.

Turning to ATGCTTCAAC, the switch fluorescence ratio came out at 1.

Consider TCTTAGGAGT, for which the switch fluorescence ratio was 0.997.

On to AGTGACGAAT, for which the switch fluorescence ratio turned out to be 1.03.

With AGGGATAAGG, the switch fluorescence ratio was determined as 0.957.

With GTTTTTCGTT, the switch fluorescence ratio was found to be 1.14.

As for GATTCGTCTT, the switch fluorescence ratio was 0.972.

As to GGACCGACAT, the switch fluorescence ratio worked out at 1.13.

Consider GCTGCGGTCA, for which the switch fluorescence ratio was 1.06.

In the case of TATCCGAAGG, the switch fluorescence ratio was determined as 1.01.

With CAAAAGGTTC, the switch fluorescence ratio turned out to be 1.01.

Take CGGGTCACTT: the switch fluorescence ratio was 1.09.

For the sequence ACATTCAGCA, the switch fluorescence ratio turned out to be 1.03.

Regarding CCGAGACATG, the switch fluorescence ratio stood at 1.1.

Turning to CACGACAAAA, the switch fluorescence ratio was determined as 1.31.

With ACATGTCGA, the switch fluorescence ratio came to 0.939.

Consider TTTGGAGTG, for which the switch fluorescence ratio turned out to be 0.957.

As for TTGCTCTGGT, the switch fluorescence ratio was 1.03.

In the case of CTTTGATACC, the switch fluorescence ratio came to 0.98.

In the case of GGTTTTGTCT, the switch fluorescence ratio is 0.844.

Turning to AATAACTTTA, the switch fluorescence ratio was 1.05.

In the case of CGGCGAGGTC, the switch fluorescence ratio is 1.05.

With ATTACTTATT, the switch fluorescence ratio came to 1.02.

Regarding AGTTAACACG, the switch fluorescence ratio was determined as 0.992.

As to CACGGAGGTC, the switch fluorescence ratio came to 1.01.

In the case of TGCTTAATTA, the switch fluorescence ratio came out at 0.929.

GGTGTCCTAC: the switch fluorescence ratio worked out at 1.04.

As to ACATATCTAA, the switch fluorescence ratio turned out to be 1.04.

In the case of GAAGCCTGAT, the switch fluorescence ratio was 1.04.

For CACGGTGCAT, the switch fluorescence ratio is 0.995.

With CTGAGTGCGT, the switch fluorescence ratio came to 1.01.

For the sequence TTTGAGCGAT, the switch fluorescence ratio stood at 1.08.

Take TGCGGATCGA: the switch fluorescence ratio was found to be 1.05.

As to AACTTCTTCG, the switch fluorescence ratio came to 1.08.

Turning to AAGCAAAGGC, the switch fluorescence ratio amounted to 1.14.

Take TGCTGTGCTG: the switch fluorescence ratio is 0.955.

With CCATGTCAAT, the switch fluorescence ratio amounted to 1.28.

On to TCTTTATCCT, for which the switch fluorescence ratio came to 1.04.

Regarding GTTTACATAC, the switch fluorescence ratio came out at 1.23.

For CGGCTGTGGG, the switch fluorescence ratio was 0.992.

With CAGTGAAGAA, the switch fluorescence ratio was determined as 0.997.

As for TTCCCGCGCC, the switch fluorescence ratio was determined as 2.31.

For the sequence CTCCGGGTGG, the switch fluorescence ratio amounted to 3.95.

On to GCCCATGGCC, for which the switch fluorescence ratio amounted to 0.964.

For the sequence GTTCTCGAAT, the switch fluorescence ratio turned out to be 1.04.

On to ATGCTTTTAA, for which the switch fluorescence ratio worked out at 0.973.

Take AGAGATCATA: the switch fluorescence ratio was determined as 1.01.

With TGCAAGACCT, the switch fluorescence ratio is 1.43.

Consider CATTATGCCG, for which the switch fluorescence ratio is 0.971.

CCATAATAAC: the switch fluorescence ratio is 1.21.

As for GACTTTCCCT, the switch fluorescence ratio came out at 1.08.

AACGCTATGG: the switch fluorescence ratio was 1.45.

Turning to AGTCTTAATG, the switch fluorescence ratio is 1.02.

Take AATTGCAACA: the switch fluorescence ratio was 1.05.

On to AAACGAGAAG, for which the switch fluorescence ratio amounted to 1.05.

In the case of ATGCCGCCGA, the switch fluorescence ratio came out at 1.01.

Consider CTCGCCTATT, for which the switch fluorescence ratio amounted to 1.05.

Consider TTATGTGATG, for which the switch fluorescence ratio came out at 1.01.

Take TTAAAATAGT: the switch fluorescence ratio turned out to be 0.993.

Take GAGTGTAGTT: the switch fluorescence ratio is 1.05.

In the case of TGGACTGTCC, the switch fluorescence ratio worked out at 1.02.

With CCATGGCTTA, the switch fluorescence ratio worked out at 1.03.

Take GGATGTCTGT: the switch fluorescence ratio is 0.994.

As for ATACTAAGAT, the switch fluorescence ratio came out at 1.03.

As for CAGCCTGTCT, the switch fluorescence ratio is 0.989.

Consider CTCTTTATGA, for which the switch fluorescence ratio amounted to 1.01.

TGTAGACAA: the switch fluorescence ratio came out at 1.39.

In the case of ACGGATAGGT, the switch fluorescence ratio came out at 1.02.

Consider GGTGCTAAG, for which the switch fluorescence ratio turned out to be 1.02.

Take CTGCGTTTAA: the switch fluorescence ratio is 1.02.

GGGGTTCCGA: the switch fluorescence ratio was determined as 1.02.

As to GAGTATTCAA, the switch fluorescence ratio turned out to be 1.02.

As for ACCCACTCCC, the switch fluorescence ratio amounted to 1.53.

As for TGCATGCAGT, the switch fluorescence ratio came out at 0.995.

On to GAGGTTCCGC, for which the switch fluorescence ratio stood at 1.08.

As for GGTATGATAC, the switch fluorescence ratio turned out to be 1.04.

On to GCGCGATCCG, for which the switch fluorescence ratio turned out to be 1.01.

Consider TCAGTGGGTC, for which the switch fluorescence ratio was determined as 0.954.

Regarding GCGCTTTTGT, the switch fluorescence ratio amounted to 0.986.

As to GGTAATCGCT, the switch fluorescence ratio was 0.97.

TCCGTATAGA: the switch fluorescence ratio was 0.99.

For the sequence ATCTTGGTAC, the switch fluorescence ratio amounted to 0.995.

Consider AGTGTTGATC, for which the switch fluorescence ratio was found to be 1.03.

With TCAACGTAGT, the switch fluorescence ratio is 0.996.

In the case of GTACTGGGCT, the switch fluorescence ratio is 0.997.

AAGGTAAAAG: the switch fluorescence ratio was 1.01.

Consider TAACAAGGGC, for which the switch fluorescence ratio was 0.981.

Consider CGACTATTAG, for which the switch fluorescence ratio came out at 1.02.

Turning to GCTCTCCCTT, the switch fluorescence ratio is 1.12.

Consider TCTGTGGCCT, for which the switch fluorescence ratio amounted to 0.917.

On to CGTTTCTGA, for which the switch fluorescence ratio is 1.01.

GACCTATTAT: the switch fluorescence ratio worked out at 1.01.

Consider TCCCGTGTGT, for which the switch fluorescence ratio was determined as 1.13.

GACGGGAAG: the switch fluorescence ratio was 1.03.

Consider ATTATCTTAG, for which the switch fluorescence ratio was 1.01.

As for CCCTTCACTT, the switch fluorescence ratio came out at 1.05.

In the case of TGCTGGACGG, the switch fluorescence ratio was 1.03.

Take GACACGGGG: the switch fluorescence ratio turned out to be 1.17.

Regarding GGCTCTGTAA, the switch fluorescence ratio worked out at 2.

As for TTCTTACCTC, the switch fluorescence ratio was 0.997.

Turning to GACTCCTGCC, the switch fluorescence ratio turned out to be 1.81.
